Test results: paper PMC12136788
Some of the results follow.

B1: 80014724_80014844_1390_CDS_ENSG00000169727_ENST00000578552|human|control|control (ssRNA)
RNA: GGGAGUUCUACAGUCCGACGAUCAUGGAUCUGGUUGCGGAGCACAGCUGCCCGCAGCAUCAUGGCCUUGGCGCGGCGCUGGAACUCCUUGCCCAUCAACAGAGACUUCUCAAAGGUGGUGCUGCGCUGAUCCACGUCCCGGGCCAACAGAGGAUUGAGCAUCA
B2: 33935379_33951508_1111_CDS_ENSG00000006125_ENST00000262325|human|control|control (ssRNA)
RNA: GGGAGUUCUACAGUCCGACGAUCCUUAUUAAUGUUCUGUGGGUUCAGAUCAAGUAAGUUGCUGUUUGGGUGAGACUCACUGAUUUCAGAUAAUGCCGCUACGGCAUUAGCCACCACCAUUGGAUUUGAAUCUGCUAUGAGAUCCAACAGAGGAUUGAGCAUCA
B3: chr16:16324163:16324164:-_ENSMUSG00000022789_ENSMUST00000023477|mus_hu|FALSE|FALSE (ssRNA)
RNA: GGGAGUUCUACAGUCCGACGAUCUCUAAUGGCAGUCAAAAUGUCAAUAGUGUUAAGGCCACCAAGUGGAUCAACAGAUUCUAAGGUUCGCCCAAAAGUCUCAUGGAAAAUAUAACAAAUUCUAGCACCACCGCAUAGCUCCGACAACAGAGGAUUGAGCAUCA
B4: 86533838_86535145_1911_CDS_ENSMUSG00000047126_ENSMUST00000103186|mouse|control|control (ssRNA)
RNA: GGGAGUUCUACAGUCCGACGAUCGAAGGCAGUACAUUGUUGGAUUAGAUUGUAUUCCAUAAAGACAUCCACAAUCUGGGUGAUAUCAGCAAGAGGCUCUUCAUCCUGAACUAACAUUUGAGCAAACUGCUGUCCUUGAUCUGGCAACAGAGGAUUGAGCAUCA
B5: 47166026_47205435_82_CDS_ENSG00000181555_ENST00000409792|human|control|control (ssRNA)
RNA: GGGAGUUCUACAGUCCGACGAUCUUCAAUCUUUGCCUCAUUUUCUUCUUCUUCAGGGGUCGGGUGCUCCGGGUCGUAGAAAUCCCCCAUCUUCGGAGGCGGCUGCGGCUGCAGCUGCUUCAUCGGGAGCGGCUGGAGACGGCGCAACAGAGGAUUGAGCAUCA
B6: chr3:32335226:32335227:+_ENSMUSG00000027665_ENSMUST00000108243|mus_hu|motif|central (ssRNA)
RNA: GGGAGUUCUACAGUCCGACGAUCUGCUUCUUUAAAUAGUUCAUGCUUUAUGGUUAUUAAUGUAGCCUCACGGAGGCAUUCGGAAGUCACUAUCAUUCCAUUUGGUAGUAAACAUUCUACUAGGAUUCUUGGGGGCAUCAAGUGCAACAGAGGAUUGAGCAUCA
B7: chr4:175158712:175158713:-_ENSG00000164117_ENST00000503293|hu_hu|motif|central (ssRNA)
RNA: GGGAGUUCUACAGUCCGACGAUCGCGACGGGUAUUUCGAAUAAAUUCCCUUUUUGACAUUUUAUUCUUCACAUGAGGGCGGGUGAGGUCAAUGGAAAGUAGAAUCAAAGAGUAGCACAGUACAUAGACAGCAUCAGGACUAAGCAACAGAGGAUUGAGCAUCA
B8: 102329212_102330853_5729_CDS_ENSMUSG00000043940_ENSMUST00000053177|mouse|control|control (ssRNA)
RNA: GGGAGUUCUACAGUCCGACGAUCCCGGUUAAUCUCCCUGACCGUGGAUCUCCCUCCGGCACUCCUGCCCACAUUGAAUCCUAACACAGUUCCAAUCUUGUUUGUCAGGACGGAAUCUGUCUGCUCCAGCCAGCCCCCGCCACUCAACAGAGGAUUGAGCAUCA
B9: chr3:169712149:169712150:+_ENSG00000008952_ENST00000337002|hu_mus|motif|central (ssRNA)
RNA: GGGAGUUCUACAGUCCGACGAUCCAAACACAAGAAGAGAAACAGCCUAAAGGAGGAUGAAGACCUAUAUAUCCAUCACCGGCGGACGGCAAAGCAAAACCACCGUGUGACUAAAGGAAAAUCACUCACUGCUCACUGGGGUGUCAACAGAGGAUUGAGCAUCA
B10: chr6:114281168:114281169:-_ENSG00000196591_ENST00000368632|hu_hu|hu_hu_hu_mus_True|18_68 (ssRNA)
RNA: GGGAGUUCUACAGUCCGACGAUCUUCCAUUUUUCGGUAUAAACCAUAAUUUAGCAGCAAGUUAUGAGUCAUGCGGAUUCUAUGAGGCUUCAUGGGAUGACCCUGGCCAUAAUAAUAAUUUCCAAUAUCACCAUCAUAGUAGUACAACAGAGGAUUGAGCAUCA
B11: chr5:21408736:21408737:-_ENSMUSG00000042453_ENSMUST00000161356|mus_hu|mus_mus_mus_hu_False|58_98 (ssRNA)
RNA: GGGAGUUCUACAGUCCGACGAUCGUUGACAGAGUUGUAAAUGGUGGCUUCAUGGAACUGGAAAGGGGAGCAGCCAAUGCUAUUGGAAGAGGAAGGAAGGCACUGGGUCUGUACGAGCUGCCAGGAAUCCGAUCUUGCAUCCUUCAACAGAGGAUUGAGCAUCA
B12: chr12:39756943:39756944:-_ENSG00000139116_ENST00000544797|hu_mus|hu_hu_hu_mus_False|38_38 (ssRNA)
RNA: GGGAGUUCUACAGUCCGACGAUCGGUUUGGCUGUUACCCCCAAGGGAAUCCUGCAAGAGUCUUGUCAGCUUAGAGUCUCUGUAAGGGACAUGGGUGGCCCUCUUGCUCUUGUCCCCCAAGGCGCUGAUUACAUUCCCAAGAGCCAACAGAGGAUUGAGCAUCA
B13: 165712517_165723485_342_3pUTR_ENSG00000143183_ENST00000464650|human|control|control (ssRNA)
RNA: GGGAGUUCUACAGUCCGACGAUCAGGAAGCUUUGCCACCACUCUACCAUCAAAUAUGGAAUUGAACAUUCCCAUUAGGGCAGUAAAACAAAAGCCAAUAGCAAACAUGGAUUUCAUUCGAACCAUUGAUAGAUCUCUGUUGUUCAACAGAGGAUUGAGCAUCA
B14: chr17:55758012:55758013:+_ENSG00000153944_ENST00000284073|hu_hu|motif|central (ssRNA)
RNA: GGGAGUUCUACAGUCCGACGAUCUGUUUUUAAAAAACAUCUUGGGAAAAGCAGUUUUUCAUAUUUUAAAUAAAAAUCGGACGGGACGGUAACAUUUGAAGCUGUGCACAGACAAGAGGUUAAUAGGCUGGUACAACACUAAUACAACAGAGGAUUGAGCAUCA
B15: chr7:151048522:151048523:+_ENSG00000013374_ENST00000566856|hu_mus|hu_hu_hu_mus_True|68_88 (ssRNA)
RNA: GGGAGUUCUACAGUCCGACGAUCCUGUUUCUUAUUUAUUACGAUCUUGAUAUAAUUUUCUUGAAAUCCAAAGGUUUCAGCUAUUUGACACCUCAGGUCUCUACCAGUGACAUGCAAGCGGGUCUCCAACAAGCUUUUCUUAUCCAACAGAGGAUUGAGCAUCA
B16: chr12:105536279:105536280:+_ENSG00000136051_ENST00000332180|hu_mus|hu_hu_hu_mus_True|1_48 (ssRNA)
RNA: GGGAGUUCUACAGUCCGACGAUCAGCACUGAACAUGUAAUGUAAUCUGGCUGCAUCGACAGCAUUUUCAUAUACAUCAUCUAAAUAAAUUGGGAAGACAGCGCGAUGCCAGUAUAAAAAACAGCAGUCACACUGUGUUUGGACCAACAGAGGAUUGAGCAUCA
B17: chr13:100193591:100193592:-_ENSMUSG00000052727_ENSMUST00000064762|mus_hu|FALSE|FALSE (ssRNA)
RNA: GGGAGUUCUACAGUCCGACGAUCUUUAAACCCUCAUCAUAGUUAGCAGUGCAAAACAUAGACUUAUCAGACAAAAAUCAACUAAAAUGUUAAUUUUGAAAUAAAUAACUAACAUAGAAAAUAAAAUGAGGUCAUUGUUCUCUACAACAGAGGAUUGAGCAUCA
B18: chr1:182352875:182352876:-_ENSG00000135821_ENST00000339526|hu_mus|motif|central (ssRNA)
RNA: GGGAGUUCUACAGUCCGACGAUCAUCCACACAUCCAUAUAUAUAUAACUUUUUUGUUUUUAACAUUUAAAUAUAAAAAUACGGCUCUGCUUUGUGUUAUGAACGGAGGACCAAGAAAUGCCAACUUUUUUCUUCCUUCACAGUCAACAGAGGAUUGAGCAUCA
B19: chr19:8913615:8913616:-_ENSMUSG00000071658_ENSMUST00000096259|mus_hu|mus_mus_mus_hu_False|18_98 (ssRNA)
RNA: GGGAGUUCUACAGUCCGACGAUCAGGGUACCAAAACACCCUGCCUCAAAUGGGUGCCCCACCCAGUAGGGAGUUGCAGCUGAAAGUAUCUGAUGCAGAAGCAGUGACUAUACGAAAGGUCACUAGAGGGGAGGGCCAGGCCAGCAACAGAGGAUUGAGCAUCA
B20: chr11:20585787:20585788:-_ENSMUSG00000049659_ENSMUST00000146722|mus_hu|FALSE|FALSE (ssRNA)
RNA: GGGAGUUCUACAGUCCGACGAUCUUUUUUUUAUUUCAAAAGUUUUGUAAGAAGGACACCACCAGUGUAUUUCACAAAGACAUAAAUGUAUACACCCCAGCAACACAAAAAGAAUAAAUCUUCAAAAAUGUUUACCCCCGAUUACAACAGAGGAUUGAGCAUCA
B21: chr16:94690093:94690094:+_ENSMUSG00000040785_ENSMUST00000117648|mus_hu|mus_mus_mus_hu_True|68_88 (ssRNA)
RNA: GGGAGUUCUACAGUCCGACGAUCGGGCUGGGAUGACGGACACACAGAUCUUCCCAGAGGGGGAAAAAAAAAUAGCCGAUACUAAUUAAAAAGUGUUAAUGAUUUUUGAAAAUCAGAUUACAUCUAUAAAAGAUGAAAAGCAAACAACAGAGGAUUGAGCAUCA
B22: 35146396_35147158_940_CDS_ENSMUSG00000029104_ENSMUST00000080036|mouse|control|control (ssRNA)
RNA: GGGAGUUCUACAGUCCGACGAUCCAGCAGACCUAGGAGGACAUUAAGGAGCCAGUUGUAGAAGUACUGUGUCCUCCUAGAAUGUUGGCAGAUGCUCACGGCUGAGCCGGCUGCUGUCCGCCGCACGGUGGGAGAGCUUGACUUCAACAGAGGAUUGAGCAUCA

Target: T1, UNK ZnF1-3 (human, UniProt Q9C0B0 31-174)
T1 sequence: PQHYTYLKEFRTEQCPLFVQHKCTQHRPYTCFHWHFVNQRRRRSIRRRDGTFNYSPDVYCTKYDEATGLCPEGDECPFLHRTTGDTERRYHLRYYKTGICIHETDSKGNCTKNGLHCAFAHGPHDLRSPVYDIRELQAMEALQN
Test: nsRBNS (natural sequence RNA bind-n-seq); RBNS binding buffer (assumed for nsRBNS): 25 mM Tris pH 7.5, 150 mM KCl, 3 mM MgCl2, 0.01% Triton X-100, 500 ug/ml BSA, 20 U/ml SUPERase-In, 4 C; UNK is unkempt and MSI1 is Musashi-1; names of the RNAs are library labels; protein concentration not given here; high values mean tight binding

Binder	binding signal
B1	1.06 enrichment R
B2	0.904 enrichment R
B3	1.51 enrichment R
B4	0.871 enrichment R
B5	1.49 enrichment R
B6	1.1 enrichment R
B7	2.2 enrichment R
B8	0.729 enrichment R
B9	1.75 enrichment R
B10	0.964 enrichment R
B11	1.65 enrichment R
B12	0.772 enrichment R
B13	1.29 enrichment R
B14	2.11 enrichment R
B15	0.933 enrichment R
B16	1.71 enrichment R
B17	1.73 enrichment R
B18	2.07 enrichment R
B19	1.33 enrichment R
B20	1.87 enrichment R
B21	2.59 enrichment R
B22	0.515 enrichment R
